# Assay results reported in the supplement of paper PMC11417369.
# ± gives the standard deviation of the averaged measurements. The list shows a part of the results.
# System: PfAP2-G AP2 domain (GST-tagged)
# Assay: gcPBM binding intensity (ln(normalized median fluorescence intensity)); higher = stronger DNA binding
# Procedure, shortened: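 Alexa488 anti-GST antibody, scanned at 488 nm, detected GST-tagged P. falciparum DNA-binding domains that had been expressed in E. coli and incubated for 1 h on an Agilent 4 × 180k array. The array carried primer-extended double-stranded 36-bp intergenic genomic probes and negative controls. Binding intensity is the highest Masliner-normalised natural-log median intensity across replicate spots of either orientation of each probe.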
row,Sequence,gcPBM binding intensity (ln)
1,AAAAAGTGATTAAAATGTACAAAATGCATAAAAGAA [XGTACX_site6625],10.6 ± 0.2
2,AAAGTAAAAAAAAAAACATGCATACGCTAATTTTTA [TGCATGCA_site301],9.65 ± 0.17
3,GATATGTTAAATATATGTACATATATAAACCCAAAC [XGTACX_site6601],11.2 ± 0.65
4,ATTTTAATACTTTTATATTAAATGTAGCACATCATA [XGTACX_negctrl_site273],10.2 ± 0.31
5,TATAATAATATTATAGTGCATATTATTTATATATAA [GTGCAC_site9820],9.895 ± 0.092
6,AAAAAAAAAAAATACACACACATATATATATATATA [CACACA_site2224],9.9 ± 0.52
7,TATGTAATAAATAGTACACACACACCGATATATATA [CACACA_site8389],11.3 ± 0.92
8,ACATATTATAACATATGTACATATATATATATATAA [XGTACX_site5567],11.2 ± 0.71
9,AAATATAAGTTTTATTGTACATTATATAGCATATTT [XGTACX_site6618],10.7 ± 0.43
10,TTTTGACATTAACTTAAAAAATAAATAATTATAAAA [XGTACX_negctrl_site552],9.65 ± 0.085
11,TTAATAAAAATATATCCACACACATATATATATATG [CACACA_site8091],10.2 ± 0.23
12,ATCATTTATTTTTTAAAAGTATATATATATATATAT [CACACA_negctrl_site220],10.1 ± 0.38
13,TTTTTTTTTTTTTAAATAATCATACATGTGAAATTG [GTGCAC_negctrl_site328],9.84 ± 0.31
14,AAAAAATAAGATTGTACACACATAAATTCTTTGTCA [CACACA_site2089],11.3 ± 0.93
15,CGTTCTATTTAGATATGTACTTAAATATATGATCAT [XGTACX_site2936],11.1 ± 0.76
16,TATCATATAAAACATGCACACATATGTACTCTTATA [CACACA_site9249],11.3 ± 1
17,AATATTATTATCTTACCACACACAATCTACGAAAAG [CACACA_site8006],10.1 ± 0.14
18,TTAAAGAATATTTTCACACATAAAAATTTTAATTTA [CACACA_site4290],9.66 ± 0.099
19,TTATAAAACACAAAATGTACAAAAAATTATAATTAA [XGTACX_site6859],10.7 ± 0.33

row,Sequence,gcPBM binding intensity (ln)
1,TATATATATATAAGTGCACACTGAACCAAGAAAATT [CACACA_site5637],10.8 ± 0.45
2,TATGTCTTGTTGTAAAATATTTATTAACAAATTGGC [CACACA_negctrl_site1452],9.98 ± 0.21
3,TATTTTTCCATATGCACACACACCGTATATATAATA [CACACA_site1127],10.3 ± 0.11
4,CATATACACCAACACACACACACACCCACAAAAAAA [CACACA_site496],10.5 ± 0.53
5,AAATAAATAATTTAATGTACATATATAATATATATA [XGTACX_site1831],11 ± 0.57
6,ATAACAAAATAAAACACACACACAAATGTACATATA [CACACA_site2425],11.3 ± 0.76
7,CACTTTATACGTAATTGTACTTTTTCTTTTTTTTAT [XGTACX_site3175],11.5 ± 0.86
8,ACTTACTAATTAATGGGTACATACACACATATATAC [XGTACX_site1362],11.3 ± 0.84
9,TATTCAAAGAAAGACAGTACGTGTAGCAAACAACCT [XGTACX_site4218],11 ± 0.63
10,TAAATAAAGTATAATGCATGCTATTATAATATTAAT [TGCATGCA_site825],9.76 ± 0.014
11,CTTTTTAATAAATATACACACACAAAAAAAAAAAAA [CACACA_site9316],10.1 ± 0.52
12,ATGATATATAGACACACACACATATTTATATACATT [CACACA_site6404],10
13,AATAAAAAAATAGAAACACACATTAAAAAAAATAAA [CACACA_site1333],9.925 ± 0.021
14,TTTTATAATATTTAAAGTACATTCTAAAAATATAAT [XGTACX_site8033],11 ± 0.76
15,TTAGCCATTAATTCTCTACACACCTTTATGTTATTT [CACACA_site9212],9.9 ± 0.18
16,CCCCCCCACGGACACACACACATACATACCACATAT [CACACA_site5303],11.7 ± 0.75
17,TACATATAATATATTGCACACGTCAGAATAATATAG [CACACA_site1744],10.1 ± 0.15
18,TAATAGAATATGATGGTGCAGCAGTCTTATTTTTCA,9.825 ± 0.049
19,TTTCTTTCTTCACATATATATATATATATATTTATA [TGCATGCA_negctrl_site341],10 ± 0.057

row,Sequence,gcPBM binding intensity (ln)
1,ATTTTTTTTTTTTTTTTTTTTTTTTAGATTAAGAAA [CACACA_negctrl_site1272],9.66 ± 0.16
2,AAATAAAATAAAATAAAATAAAATTCTTTGATACCT [TGCATGCA_negctrl_site604],9.54 ± 0.2
3,TATAATTATTTTTTTCTAAATATTATAAGGTATTCA [GTGCAC_negctrl_site205],9.87 ± 0.31
4,TAAAAATGTGTATGTACACACTTTATTTTTAATACA [CACACA_site7235],11.6 ± 0.99
5,TATTCATATTTAAAGGTGCAATATTTATTTTGTACA,10.2 ± 0.18
6,TATTCTAATTTTTAAACACACAAATATAAATAAGTA [CACACA_site3149],9.96 ± 0.23
7,CTATTTATTATATATACATGCATATATATATTAATA [TGCATGCA_site527],9.71 ± 0.19
8,AGATGATATATTATATATCCTTTTAATAAATGTAAT [CACACA_negctrl_site730],9.65 ± 0.071
9,ACATATAATATATATATATATATATATATATATAAT [GTGCAC_negctrl_site648],9.73 ± 0.26
10,TATATAAAAAATTCAATACACACCATATATAAATAT [CACACA_site3987],9.97 ± 0.014
11,TATTAAACGAAACACACACACACACCCATATATAAA [CACACA_site759],10.3 ± 0.3
12,AAAAAGAATGTGAACACACACATTGAATCTAATTTA [CACACA_site6711],9.86 ± 0.15
13,GATAATTATGGACACACACACACACCCACAACTAAA [CACACA_site8824],11.2 ± 0.76
14,AAAAAAAAAAAAAAGAGTACTTTTTTCTCATTACTA [XGTACX_site8353],11.3 ± 0.64
15,TATTCTTCAATTTAAAGTACAAAAATTACTATACTT [XGTACX_site6599],11 ± 0.77
16,AAAAAAAAAAAAATAGGTACGTAAATATTTCTTTAA [XGTACX_site6423],11 ± 0.46
17,TCTTTTAGTTTTATCCACATAATAAAAAGCAAAAAA [GTGCAC_negctrl_site368],10.1 ± 0.33
18,AATTAAAATATATATATACACACGTAATTATATATA [CACACA_site3819],9.78 ± 0.085
